The source gives no read counts; variants with many changes may rest on few reads.

To fix the notation:
B1: OR4K15 (parent)
chain: GUUAACGGUCAUAGGCCAUGGAAACUAGGAGCACCAUUUCGCUGCCAGUGAAGAAAUGAACAAAGAAAAUCUGGGCCAGGCAGGCAUCAAAAGAAAUAGUCUUGCGCUCAACCAGAAAGUCUGUAAUCAUUUUAAGGGUA

The variants in the data set derive from B1. As to the kind of experiment: self-cleavage, relative activity (ratio to wild type); higher = more cleavage; in vitro, sequencing; the parent is a self-cleaving ribozyme.
Consider GUUAACGGUCAUAGGCCAUGGAAACUAGGGGCACCAUUUCGCUGCCAGUGAAGAAAUGGACAAAGAAACUCUGGGCCAGGCAGGCAUCAAGAGAAAUAGUCAUGCGCUCAACCAGAAAGUCUGUAAUCAUUUUAAGGGUA [A30G A59G A69C A91G U102A], for which the self-cleavage came to 0.33.

For GUUAACGGUCAUAGGCCAUGGAAACUAGGGGCACCAUUUCGCUGCCAGUGAAGAGAUGAACAAAGAAAAUCUGGGCCAGGCAGGCAUCAAAAGAAAUAGUCAUGCGCUCAACCAGAAAGUCUGUAAUCAUUCUAAGGGUA [A30G A55G U102A U132C], the self-cleavage is 0.2.

Take GUUAACGGUCAUAGGCCAUGGAAACUAGGGGCACCAUUUCGCUGCCAGUGAAGAAAUGAACAAAGAGAAUCUGGGCCAGGCAGGUACCAAAAGAAAUAGUCUUGCGCUCAACCAGAAAGUCUGUAAUCAUUUUAAGGGUA [A30G A67G C85U U87C]: the self-cleavage was 0.87.

Take GUUAACGGUCAUAGGCCAUGGAAACUAGGGGCACCAUUUCGCUGCCAGUGAAGUAAUGAACAAAGAAAAUCUGAGCCAGGCAGGCGCCAAAAGAAAUAGUCUUGCGCUCAACCAGAAAGUCUGUAAUCAUUUUAAGGGUA [A30G A54U G74A A86G U87C]: the self-cleavage amounted to 0.17.

Consider GUUAACGGUCAUAGGCCAUGGAAACUAGGGGCACCAUUUCGCUGCCAGUGAAGAAAUGAACAAAGAGAAUCUGGGCCAGGCAGGCAUCAAAAGAACUAGUCUUGCGCUCAACCAGAAAGUCUGUAAUCACUUUAAGGGUA [A30G A67G A96C U130C], for which the self-cleavage was 0.64.

For GUUAACGGUCAUAGGCCAUGGAAACUAGGGGCACCAUUUCGCUGCCAGUGAAGAAAUGAACAAAGAGAAUCUGGGCCAGGCAGGCAUCAAAAGAAAAAGUCUUGCGCUCAACCAGAAAGUCUGUAAUCAUUUUAAGGGUA [A30G A67G U97A], the self-cleavage is 0.15.

With GUUAACGGUCAUAGGCCAUGGAAACUAGGGGCACCAUUUCGCUGCCAGUGAAGAAAUGAACGAAGAAAAUCUGGGCCAGGCAGGCAUCAAAGGAAAUAGUCUUGCGCUCAACUAGAAAGUCUGUAAUCAUUUUAAGGGUA [A30G A62G A92G C113U], the self-cleavage worked out at 0.05.

For GUUAACGGUCAUAGGCCAUGGAAACUAGGGGCACCAUUUCGCUGCCAGUGAAGAAAUGAACAGAGAAAAUCUGGGCCAGGCAGGCAUCAAAAGAAAUAGUCUUGCGCUCAACCAGAAAGACUGUAAUCAUUUUAAGGGUA [A30G A63G U120A], the self-cleavage came out at 1.68.

Consider GUUAACGGUCAUAGGCCAUGGAAACUAGGGGCACCAUUUCGCUGCCAGUGAAGAAAUGAACUAAGAAAAUCUGGGCCAGGCAGGCAUCAAAAGAGAUAGUCUUGCGCUCAACCAGAAAGUCUGUAAUCAUUUUAAGGGUA [A30G A62U A95G], for which the self-cleavage was 1.69.

Take GUUAACGGUCAUAGGCCAUGGAAACUAGGGGCACCAUUUCGCUGCCAGUGAAGAAAUGAACAGAGAAGAUCUGGGCCAGGCAGGCAUCAAAAGAAAUAGUCUUGCGCUCAACCAGUAAGUCUGUAAUCAUUUUAAGGGUA [A30G A63G A68G A116U]: the self-cleavage worked out at 0.19.

In the case of GUUAACGGUCAUAGGCCAUGGAAACUAGGGGCACCAUUUCGCUGCCAGUGAAGAAAUGAACAAAGGAAAUCUGGGCCAGGCAGGCGUCAAAAGAAAUAGUCUUGCGCUCAACCAGAAAGCCUGUAAUCAUUUAAAGGGUA [A30G A66G A86G U120C U133A], the self-cleavage is 1.43.

GUUAACGGUCAUAGGCCAUGGAAACUAGGGGCACCAUUUCGCUGCCAGUGAAGAAAUGAACAAAGAAGAUCUGGGCCAGGCAGGCAUCGAAAGAAAUAGUCUUGCGCUCAGCCAGAAAGUCUGUAAUCAUUUUAAGGGUA [A30G A68G A89G A111G]: the self-cleavage was 0.01.

With GUUAACGGUCAUAGGCCAUGGAAACUAGGGGCACCAUUUCGCUGCCAGUGAAGAAGUGAACAAAGAAAAUCUGGGCCAGGCAGGCAUCAAAAGAAAUAGUCUUGCGCUCAACCAGAAAGUCCGUAAUCAUUUUAAGGGUA [A30G A56G U122C], the self-cleavage was determined as 0.51.

In the case of GUUAACGGUCAUAGGCCAUGGAAACUAGGGGCACCAUUUCGCUGCCAGUGAAGAGAUGAACAAAGAAAAUCUGGGCCAGGCAGGCAUCAAAAGAAAUAGUCUUGCGCUCAACCAGAAAGUCCGUAAUCAUUUUAAGGGUA [A30G A55G U122C], the self-cleavage worked out at 0.88.

GUUAACGGUCAUAGGCCAUGGAAACUAGGGGCACCAUUUCGCUGCCAGUGAAGAAAUGAACAGAGAAAAUCUGGGCCAGGCAGGCAUCAAAAGAAAUAGUCUUGCGCUCAACCAGAAAGUCCGUAAUCACUUUAAGGGUA [A30G A63G U122C U130C]: the self-cleavage amounted to 0.89.

As to GUUAACGGUCAUAGGCCAUGGAAACUAGGGGCACCAUUUCGCUGCCAGUGAAGAAAUGAACAAAGGAAAUCUGGGCCAGGCAGGCAUCAAAAGAAAUAGUCUUGCGCUCAACCAGAAAAUCUGUAAUCAUUUUAAGGGUA [A30G A66G G119A], the self-cleavage stood at 2.06.

For GUUAACGGUCAUAGGCCAUGGAAACUAGGGGCACCAUUUCGCUGCCAGUGAAGAAAUGGACAAAGAAAAUCUGGGCCAGGCAGGCAUCAAAAGAAUUAGUCUUGCGCUCAACCAGAAAGUCCGUAAUCAUUUUAAGGGUA [A30G A59G A96U U122C], the self-cleavage amounted to 1.45.

Regarding GUUAACGGUCAUAGGCCAUGGAAACUAGGGGCACCAUUUCGCUGCCAGUGAAGAAAUGAGCAAAGAAAAUCUGGGCCAGGCAGGCAUCAAAAGAAAUAGUCUUGCGCUCAACCAGAAAGUCUGUAAUCAUUUUAAGGGAA [A30G A60G U139A], the self-cleavage was 1.68.

Turning to GUUAACGGUCAUAGGCCAUGGAAACUAGGGGCACCAUUUCGCUGCCAGUGAAGAAAUGAACAAAGAGAAUCUGGGCCAGGCAGGCAUCAAAAGAAAUAGCCUUGCGCACAACCAGAAAGUCUGUAAUCAUUUUAAGGGUA [A30G A67G U100C U108A], the self-cleavage turned out to be 0.02.

In the case of GUUAACGGUCAUAGGCCAUGGAAACUAGGGGCACCAUUUCGCUGCCAGUGAAGGAAUGAACAAAGAAAAUCUGGGCCAGGCAGGCAUCUAAAGAAAUAGUCUUGCGCUCAACCAGAAAGUCUGUAAUCAUUUUAAGGGUA [A30G A54G A89U], the self-cleavage is 1.21.

The values are drawn from the RNAGym collection of RNA variant scans (doi:10.7554/elife.90254).
